Results taken from PubChem BioAssay AID1671193 (National Center for Advancing Translational Sciences (NCATS), 2021).
Hit rate of the full screen: of about 150,000 compounds, about 180 (0.12%) were called active. The shares of active, inactive and inconclusive entries below differ from those in the screen. Calls come from the whole dose curve; as a rule, active = well fitted cell-killing curve with a large enough effect; inconclusive = small, poorly fitted or top-dose-only effect, or effect the other way; inactive = flat fitted curve, though single readings scatter. Potencies beside an inconclusive call are fits to weak or partial responses and may not hold up.

assay: GF-AFC viability counterscreen for inhibitors of alpha-synuclein gene (SNCA) expression; settings: HEK-293-SNCA-luc viability, GF-AFC fluorescence, 24 h; activity change, negative = cytotoxicity: at 57.1 µM (top of the series) unless noted; note: nearly all actives have a fitted effect of over 30% in size;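 for activity change, negative = cytotoxicity: 0% = DMSO-treated cells and -100% = medium-only wells without cells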
Method in brief: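 Cytotoxicity counterscreen: after 24 h compound treatment of genome-edited SNCA-luciferase HEK-293 cells, live-cell protease substrate GF-AFC read by fluorescence after 30 min; activity scaled between DMSO (0%) and medium-only (-100%), curves Hill-fitted.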
Potency is the fitted concentration of half-maximal effect; tags give direction and shape of the fitted curve.

Question: With `Cc1ccccc1Cn1cc(CCC(=O)NCc2cccc(Br)c2)c2ccccc21` as the compound, how does the Potency read?
Answer: inconclusive: 7.08 µM [rising, single point]

Question: Which Potency does the source give for `O=C1CC2(CCN(S(=O)(=O)c3cccs3)CC2)Oc2cc(Cl)ccc21` here?
Answer: inactive

Question: With `O=C1CCCN1CCCN1C(=O)[C@H]2CN(Cc3ccccc3C(F)(F)F)C[C@H]2C1=O` as the compound, how does the Potency read?
Answer: inactive

Question: With `COc1ccc(OC)c(CN2CCNc3cc(-c4ccccc4)ncc3C2)c1` as the compound, how does the Potency read?
Answer: inconclusive: 2.82 µM [cytotoxic, partial curve, poor fit]

Question: Which Potency does the source give for `Cc1ccc(-c2ncc(C(=O)NCCC3=CCCCC3)c(-c3ccncc3)n2)cc1` here?
Answer: inconclusive: 31.6 µM [cytotoxic, single point]

Question: With `O=C(NCc1ccccc1Cl)C1CCc2nnc(C3CCN([S+](=O)([O-])c4ccccc4Cl)CC3)n21` (configuration not stated) as the compound, how does the Potency read?
Answer: inactive

Question: Which Potency does the source give for `Cc1cccc2sc(N3CCN(C(=O)c4ccco4)CC3)nc12` here?
Answer: inactive

Question: Which Potency does the source give for `O=c1c(-c2ccc(F)c(F)c2)nc2cncnc2n1Cc1ccccc1Cl` here?
Answer: inconclusive: 3.98 µM [cytotoxic, full curve, poor fit]

Question: Which Potency does the source give for `CNc1nccc(N2CCC(CC(=O)NC3CCN(Cc4ccccc4)CC3)CC2)n1` here?
Answer: inconclusive: 7.08 µM [cytotoxic, single point]

Question: For `O=C(NCc1ccc(F)cc1)c1cc(Br)cn2ccnc12`, which Potency is on record?
Answer: inactive

Question: Which Potency does the source give for `COc1ccc(Oc2ncc3nc(-c4cn(C)c5ccccc45)c(=O)n(C)c3n2)cc1` here?
Answer: inconclusive: 8.91 µM [cytotoxic, partial curve, poor fit]

Question: Which Potency does the source give for `CCOc1cccc(CN(C)Cc2cn[nH]c2-c2ccc(F)cc2)c1O` here?
Answer: inactive

Question: With `COc1ccc2cc(CNc3ccc(OC)c(OC)c3)c(=O)n(CC(=O)Nc3ccc(C)cc3)c2c1` as the compound, how does the Potency read?
Answer: inconclusive: 3.98 µM [cytotoxic, full curve, poor fit]

Question: Which Potency does the source give for `COc1cc(OC)cc(-n2c(=O)c3ccccc3n(CC(=O)NCCc3ccc(OC)c(OC)c3)c2=O)c1` here?
Answer: inconclusive: 0.178 µM [cytotoxic, full curve, poor fit]

Question: Which Potency does the source give for `CCC(=O)N1CCCN(Cc2ccc3c(c2)OCO3)c2ccccc21` here?
Answer: inactive

Question: Which Potency does the source give for `C[C@@H]1CN(c2c(F)c(N)c3c(=O)c(C(=O)O)cn(C4CC4)c3c2F)C[C@H](C)N1` here?
Answer: inconclusive: 11.8 µM [cytotoxic, single point]

Question: With `COc1ccccc1CCNC(=O)c1cccn1-c1nnc(N2CCCCC2)s1` as the compound, how does the activity change, negative = cytotoxicity read?
Answer: inconclusive: 29.1%

Question: Which Potency does the source give for `CC1Oc2ccc(NC(=O)c3ccc(F)cc3F)cc2CN(Cc2ccccc2Cl)C1=O` (configuration not stated) here?
Answer: inactive

Question: Which Potency does the source give for `O=C(CN1C(=O)C2(SCC(=O)N2c2cccc(Cl)c2)c2ccccc21)NC1CCCCC1` (configuration not stated) here?
Answer: inconclusive: 4.47 µM [cytotoxic, full curve, poor fit]

Question: With `CCN(CC)CCCNC(=O)Cn1c(-c2cccs2)cc2cc(Cl)ccc21` as the compound, how does the Potency read?
Answer: inconclusive: 31.6 µM [cytotoxic, single point]

Question: For `CCN1CCN(C(=O)c2ccc3c(c2)N(Cc2cc(C)ccc2C)C(=O)c2ccccc2S3=O)CC1` (configuration not stated), which Potency is on record?
Answer: inconclusive: 39.8 µM [cytotoxic, single point]

Question: Which Potency does the source give for `O=C(c1ccccc1)N1CCCC(C(=O)N2CCCC(c3nc4ccncc4[nH]3)C2)C1` (configuration not stated) here?
Answer: inconclusive: 7.08 µM [rising, single point]

Question: With `Cc1ccccc1S(=O)(=O)N1CCCC(CCC(=O)Nc2cccc(Cl)c2)C1` (configuration not stated) as the compound, how does the Potency read?
Answer: inconclusive: 25.1 µM [cytotoxic, single point]

Question: For `CCN1C(=O)C2CC3(CCN(C(=O)c4cnc(C)cn4)CC3)CN2C1=O` (configuration not stated), which Potency is on record?
Answer: inconclusive: 8.91 µM [rising, partial curve]

Question: Which Potency does the source give for `CC1=C(C(=O)OC(C)C)C(c2ccccc2Cl)N2C(CC(=O)NCC3CC3)=CSC2=N1` (configuration not stated) here?
Answer: inactive

Question: Which Potency does the source give for `CCn1c(=O)c2c(cc(C)n2C)n(CC(=O)Nc2ccc(OC)c(Cl)c2)c1=O` here?
Answer: inconclusive: 7.08 µM [cytotoxic, partial curve]

Question: For `COc1cccc(NC(=O)c2cc3c(n2C)CCN(Cc2ccc(F)cc2)C3)c1`, which Potency is on record?
Answer: inactive

Question: For `Nc1nc2c(c(N3CCNCC3)n1)CCC1=C2[C@@H]2CCCC[C@@H]2O1`, which Potency is on record?
Answer: inconclusive: 11.9 µM [cytotoxic, partial curve, poor fit]

Question: With `COc1ccc(CC(=O)N2C[C@@H]3CCCN4CCC[C@@H]([C@H]34)[C@H]2CCCC(=O)NCC2CC2)cc1` as the compound, how does the Potency read?
Answer: inactive

Question: For `Cc1cnc(CC2CCN(C(=O)Nc3ccccc3)C2)n1CC1CC1` (configuration not stated), which Potency is on record?
Answer: inconclusive: 3.98 µM [cytotoxic, single point]

Question: With `O=C(Nc1cccc(Cl)c1)C1CN(C2CCCC2)C(=O)N1` (configuration not stated) as the compound, how does the activity change, negative = cytotoxicity read?
Answer: inactive: 1.26% [at 12.5 µM]

Question: With `Cc1oc2c(c1C(=O)N1CCOCC1)CN(C(=O)c1ccncc1)CC2` as the compound, how does the Potency read?
Answer: inconclusive: 3.98 µM [cytotoxic, single point]

Question: For `O=C(Nc1ccc([C@H]2OCC(=O)N(Cc3ccncc3)[C@@H]2CO)cc1)c1ccc(C(F)(F)F)cc1`, which Potency is on record?
Answer: inactive

Question: For `Cc1ccc(NCc2nnc3n2CCCCC3)cc1Cl`, which Potency is on record?
Answer: inconclusive: 2.82 µM [rising, full curve, poor fit]

Question: Which Potency does the source give for `CC(C)OCCCN1C(=O)c2[nH]nc(-c3ccccc3O)c2C1c1ccc(OCc2ccccc2)cc1` (configuration not stated) here?
Answer: inconclusive: 35.5 µM [cytotoxic, partial curve, poor fit]

Question: Which Potency does the source give for `Cc1cc(F)ccc1NC(=O)c1sc2nc(-c3cccs3)ccc2c1N` here?
Answer: inconclusive: 22.4 µM [rising, partial curve]

Question: With `c1cncc(CNc2cc(-c3cnc4ccccc4n3)c3cc[nH]c3n2)c1` as the compound, how does the Potency read?
Answer: inconclusive: 22.4 µM [cytotoxic, partial curve, poor fit]

Question: For `COc1ccc(S(=O)(=O)N(CC(=O)N2CCC(C)CC2)c2ccc(C)cc2)cc1`, which Potency is on record?
Answer: inconclusive: 4.47 µM [cytotoxic, partial curve]

Question: With `CC1CCc2nc3ncn(CC(=O)Nc4cccc(C#N)c4)c(=O)c3cc2C1` (configuration not stated) as the compound, how does the Potency read?
Answer: inconclusive: 3.98 µM [cytotoxic, full curve]

Question: For `O=C(Nc1ccncn1)[C@@H]1C[C@@H](c2ccc(F)cc2)N(CCOc2ccccc2)C1`, which Potency is on record?
Answer: inactive

Question: With `COc1ccc(C(=O)N2CCn3c(nnc3C3CC3)C2)cc1` as the compound, how does the Potency read?
Answer: inactive

Question: With `C=C(C)CN(CC)C(=O)c1coc(CN2CCN(C/C=C/c3ccccc3)CC2)n1` as the compound, how does the Potency read?
Answer: inconclusive: 5.62 µM [cytotoxic, single point]
